# The full ranking holds about 33,000 sequences; the median of “E-score (-0.5 to 0.5)” is about -0.054, and the highest 2% start at about 0.39. Some of the results follow.
# Target: Ylr278c (UniProt Q05854)
# Experiment: PBM E-score (8-mer binding enrichment) (E-score (-0.5 to 0.5)); higher = stronger / more preferred TF binding; most listed sequences are background and not binding sites
# Settings: protein concentration: 200 nM; construct: GST-DNA-binding domain
# Method in brief: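 The E-score, a modified Wilcoxon-Mann-Whitney statistic, was computed by the Universal PBM Analysis Suite for every ungapped eight-base word pooled with its reverse complement. Scans behind it were normalised with masliner after bound GST-tagged yeast transcription factors were detected with fluorescent anti-GST. The proteins, at about 100-200 nM, had been applied to universal all-10-mer Agilent arrays made double-stranded by primer extension.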
row,Sequence,PBM E-score
1,AGACAGGC,-0.0968
2,AAGGTCCT,-0.24
3,ATACACGA,-0.0636
4,AATCGAGT,-0.111
5,CATACATA,-0.214
6,AATAACGA,-0.089
7,CGATACCC,0.0456
8,AGTGTTCG,0.1
9,CCTTACGA,-0.147
10,ATCTCTAA,0.0439
11,TCATAACA,-0.142
12,ATTTATCC,0.163
13,TAAAATTA,0.0965
14,AGAACCCG,0.11
15,CACATAGA,-0.178
16,ACAGATCA,0.0369
17,GGCGTGGA,-0.0849
18,CACTCTCA,-0.292
19,GAAATTAA,0.0737
20,AATCTAGC,-0.262
21,GCATCAGC,-0.0105
22,TAGCATCA,-0.126
23,TCCCAAAA,-0.0528
24,CTCCGTTC,0.394

row,Sequence,PBM E-score
1,CACAGACC,0.0943
2,CAAGCAGG,0.00606
3,ACGGCCAA,0.123
4,CGTCTCGC,-0.114
5,AGCAACTC,0.0225
6,AATCTGAA,-0.187
7,AAGCAATT,-0.0901
8,AGATGTGA,-0.00546
9,TATGAAGA,-0.0327
10,GCATTTTA,0.0813
11,CGTGTGAG,-0.0888
12,CATCGACC,-0.0666
13,GAATGATA,0.102
14,ACGGCACT,0.226
15,AAAACTCA,0.0289
16,CCGTCCTA,0.0556
17,ACAGCTAT,-0.277
18,CAGTGACG,0.0689
19,GCTGTTAA,-0.139
20,ACGCGTTG,-0.0402
21,CTTACGCC,0.153
22,ATCGGGTA,0.0546
23,TACATCGA,-0.115
24,CCAGTTCG,0.0695

row,Sequence,PBM E-score
1,AGGAATCC,0.0322
2,GTACCAAC,-0.0251
3,ATCGAAAC,0.0377
4,GCCTAAAA,-0.279
5,CCTGCGCA,-0.0614
6,CAGGCCCA,-0.238
7,ACGCTGAC,-0.0402
8,ATTTTATC,0.0903
9,AGAGGCCC,-0.102
10,AGCGATTC,-0.0824
11,GCCAACCC,0.0474
12,GAGGTTAA,-0.042
13,ACTCCTTG,0.0391
14,ACGCTACC,-0.0748
15,AAATACGA,-0.0435
16,CCATAGTA,-0.119
17,AGTGAACG,-0.133
18,CTGCTACC,-0.197
19,ATCGTGAC,-0.0519
20,CAATTACC,0.13
21,ATTCTCGA,-0.171
22,GCTTAGTA,-0.133
23,ATCTAAAT,0.0897
24,CTTCGGTC,0.151

row,Sequence,PBM E-score
1,CTTTCGCA,-0.167
2,AACTAAAC,0.0172
3,CGCCGGAG,0.459
4,GCCATCGA,-0.0575
5,CAGGAGGC,-0.0031
6,CACGAGGC,-0.143
7,CGGCAAAA,0.188
8,CGGTCGTA,0.142
9,GCAAAAGC,0.00747
10,GGGGTCCA,-0.0346
11,ACGAGGCA,-0.241
12,CAAGGTAG,-0.149
13,GGAACTGA,0.0499
14,ACGGATAG,0.103
15,ACGGCCGA,0.246
16,CAGCGTCG,0.075
17,ATGTAAGG,0.0178
18,CCAGAGCC,-0.136
19,CGCTTCTC,0.168
20,GACTAATA,-0.0781
21,GATCTATA,-0.0165
22,CTGGCCAC,-0.253
23,ACCTGTCC,0.0205
24,CAAACCCG,0.261

row,Sequence,PBM E-score
1,AGTTAGCC,-0.039
2,TAGAAATA,-0.0866
3,AGTGAACA,-0.181
4,TGGTCGAA,-0.368
5,GATTTGTA,-0.0321
6,GTTGTTGA,-0.184
7,CGCTTTAG,-0.025
8,AGAATGCC,0.049
9,GAAATGAC,-0.0184
10,AATTTTGC,0.0144
11,AAGCCCTG,-0.314
12,AATATGCG,0.11
13,GCAGGACC,0.0778
14,CCACTATA,-0.182
15,GTTTCCGA,0.369
16,CCCATTCG,-0.0777
17,GCCGGAGC,0.452
18,CAGCATCG,-0.221
19,AGGGATTC,-0.0988
20,CGCTGGCA,-0.113
21,CCATATGC,-0.00309
22,CCTATTAG,-0.117
23,CCCCATAA,0.0806
24,GCGCCATA,-0.117

row,Sequence,PBM E-score
1,AGTTTGCA,-0.147
2,AAATGCAG,-0.192
3,TCTTGCCA,-0.278
4,TCAGGGAA,-0.178
5,CGTCGTAA,-0.119
6,CACAGATC,-0.0312
7,AATGGGTC,0.0223
8,CCGATCCC,0.268
9,AAGATTGG,-0.161
10,GGCACGAC,-0.059
11,AAATTCTG,0.0321
12,CAACTTCC,0.22
13,ACCTAGTG,-0.16
14,AGAGACTA,-0.0856
15,CACAGCTC,-0.127
16,CATGTGGG,-0.117
17,AACGGTTC,-0.0646
18,CACAGTGA,-0.284
19,ACCTGTTC,0.00857
20,AAAGACAA,0.0683
21,CCGGCAAA,0.36
22,ACACCATC,-0.209
23,AGCACAAT,-0.268
24,GTAATAAA,0.0333

row,Sequence,PBM E-score
1,GTCAGTTA,-0.119
2,ACCGACGT,0.106
3,ATCTACTG,-0.131
4,GCACGTTA,-0.196
5,CCCAGGCG,-0.0805
6,CTCTTCTC,-0.106
7,CATTCACA,-0.25
8,ACTTGCTC,-0.145
9,ACCATAAT,-0.11
10,CATGTTTA,-0.0727
11,AAATGTTC,-0.0989
12,CTTTGAGA,-0.0977
13,ATTCCGCA,0.356
14,AACCCATG,-0.00975
15,CCCCCTTC,-0.29
16,CAACATTC,-0.0869
17,TGCCACAA,-0.156
18,CGTTACGC,-0.0714
19,CTAAAAGC,0.0641
20,AGCGCTTC,0.0609
21,CAAAATGG,0.131
22,CCCGAACG,0.236
23,TAACGGAA,0.312
24,CACTTGGG,-0.116

row,Sequence,PBM E-score
1,ACCCGGGT,0.33
2,AAGAGCAT,-0.135
3,ACATGGTG,-0.17
4,ACGGGACC,0.0315
5,CTCGAGGA,-0.244
6,ATGGCAAG,-0.115
7,AGTATCAG,-0.116
8,CTGATCCC,-0.134
9,CTACATAG,-0.101
10,AAGCTCAC,-0.11
11,AGATGGCT,-0.123
12,CCCCTCGG,0.0865
13,ACCACGAC,-0.162
14,GCTTGCGA,-0.0301
15,ATTCATTG,-0.113
16,ATAAGTGA,-0.229
17,AGCTGCCC,0.0319
18,AGCGTAGA,-0.0682
19,AATCAGGA,-0.138
20,GCCAATAC,-0.0493
21,ATCACATG,-0.163
22,ACAACGGA,0.347
23,GACCCGCC,0.135
24,ACTCGCCG,0.28

# Reference: the supplement of paper PMC3334620
